Laboratory results from PMC6919601, “Identification of Plasmodium dipeptidyl aminopeptidase allosteric inhibitors by high throughput screening” (PLoS ONE, 2019).
Hit rate of the full screen: of about 110,000 compounds, about 230 (0.21%) showed an effect of 50% or more. The list shows a part of the results.

Molecular target: DPAP1 (Plasmodium falciparum, UniProt Q8IIJ9)
Experiment: primary screen, percent inhibition; read by cleavage of a fluorogenic dipeptide substrate; higher = more effect of the substance
Set-up: species or system P. falciparum D10 trophozoite lysates; single well
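Note: 30 min substrate incubation versus DMSO and 10 µM JCP410 controls.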

Chain of DPAP1 (Q8IIJ9 whole entry, looked up): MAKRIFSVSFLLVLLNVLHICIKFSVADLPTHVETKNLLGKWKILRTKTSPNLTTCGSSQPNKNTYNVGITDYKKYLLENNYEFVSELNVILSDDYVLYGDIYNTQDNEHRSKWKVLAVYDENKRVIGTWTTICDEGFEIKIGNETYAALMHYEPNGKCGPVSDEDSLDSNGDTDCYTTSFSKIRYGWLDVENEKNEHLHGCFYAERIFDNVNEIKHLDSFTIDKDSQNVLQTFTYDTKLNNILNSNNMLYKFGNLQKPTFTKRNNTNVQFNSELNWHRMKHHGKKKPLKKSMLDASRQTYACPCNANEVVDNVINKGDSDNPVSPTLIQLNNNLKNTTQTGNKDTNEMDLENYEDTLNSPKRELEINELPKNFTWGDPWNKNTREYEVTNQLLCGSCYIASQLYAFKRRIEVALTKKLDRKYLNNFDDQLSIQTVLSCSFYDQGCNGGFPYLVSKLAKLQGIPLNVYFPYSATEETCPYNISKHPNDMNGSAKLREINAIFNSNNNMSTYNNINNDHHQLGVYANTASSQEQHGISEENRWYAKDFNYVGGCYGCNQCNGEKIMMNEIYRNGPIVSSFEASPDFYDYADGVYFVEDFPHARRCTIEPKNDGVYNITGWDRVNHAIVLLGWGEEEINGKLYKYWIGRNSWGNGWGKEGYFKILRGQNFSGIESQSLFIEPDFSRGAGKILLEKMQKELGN

Compound | % Inhibition @ 10 uM
Cc1ccc(NC(=O)C2CCCN2C(=O)OCc2ccccc2)c(C)c1 (stereo not shown) | -1.88%
CCOc1cc(C2NC(C(=O)O)CS2)ccc1OC (stereo not shown) | -2.07%
CCOc1ccc2nc(Nc3nc(C)c(Cc4ccccc4)c(O)n3)nc(C)c2c1 | 0.163%
CCOc1cccc(C(=O)Nc2nn3c(-c4ccc(OC)c(OC)c4)nnc3s2)c1 | 0.229%
C=CCCCC(=O)NCC1CCCO1 (stereo not shown) | 4.55%
c1ccc(NC(c2ccccc2)c2ccncc2)cc1 (stereo not shown) | 4.57%
CN(Cc1ccccc1)Cc1ccncc1 | -4.95%
CC1=C(C(=O)Nc2ccccc2C)C(c2cccnc2)n2nc(CCCO)nc2N1 (stereo not shown) | 2.93%
O=C1CC(NC2CCCC2)C(=O)N1c1ccc(Br)cc1 (stereo not shown) | 3.17%
CCO/C(O)=C1\C(C)=NC(=S)NC1c1ccc2c(c1)OCO2 (stereo not shown) | 0.343%
CCC(Oc1ccccc1)C(=O)Nc1ccc(C(C)=O)cc1 (stereo not shown) | -8.59%
CCOC(=O)N1CCN(C(=O)Cn2nc(Cc3ccncc3)c3ccccc3c2=O)CC1 | -6.52%
COc1ccc(C(=O)Nc2ccccc2C(=O)NCC(C)C)cc1 | -6.17%
CCCn1cnc2cc(NC(=O)c3ccco3)ccc21 | 2.4%
COc1ccc(C2NC(=O)N(C)C3=C2C(=O)N(Cc2ccccc2)C3)cc1 (stereo not shown) | -3.07%
Cc1ccc2nc3c(O)n(CC(=O)N4CCN(C(=O)c5ccco5)CC4)ncc-3c2c1 | -4.78%
Cc1ccc(-n2nc3c(N4CCCC(C(=O)NCCN(C)C)C4)nnc(C)c3c2C)cc1 (stereo not shown) | 2.75%
COC(=O)C1=C(C)N=c2s/c(=C\c3cccc(Br)c3)c(=O)n2C1c1ccccc1 (stereo not shown) | -3.69%
O=C(c1ccc(Cl)cc1)N1CCN(c2ccccc2)CC1 | -3.92%
Cc1cccc(NC(=O)CCC(=O)O)c1 | -0.192%
O=C(c1ccc2c(c1)sc1nc(-c3ccc(F)cc3)cn12)N1CCOCC1 | 26%
CCn1cc(/C=C(\NC(=O)c2ccco2)C(=O)NCCc2c[nH]c3ccccc23)c2ccccc21 | -1.74%
O=C(NCc1cccnc1)c1cc2c(=O)oc3ccccc3c2s1 | -2.01%
O=C(CC1(O)C(=O)Nc2ccc(Br)cc21)c1ccc(Cl)s1 (stereo not shown) | 0.317%
COCCN1C(=O)C(O)=C(C(=O)c2cccs2)C1c1ccccc1F (stereo not shown) | -5.34%

Compound | % Inhibition @ 10 uM
COc1ccc(-c2nc3c4ccccc4nc(S)n3n2)cc1 | -0.326%
Cc1cc(N2CCOCC2)nc(-c2ccccc2O)n1 | 4.63%
O=C1CC(Cc2ccc(Cl)cc2)C(=O)N1c1ccncc1 (stereo not shown) | 0.415%
CC(=O)N(C)c1ccc(NC(=O)CCC(=O)O)cc1 | -3.42%
C=CCOC(=O)c1sc(NC(=O)c2ccc(Cl)cc2)nc1C | 0.389%
O=C(CNc1ncnc2onc(-c3ccc(F)cc3)c12)N(Cc1cccs1)C1CCCC1 | -0.495%
Cc1ccc(C2Nc3ccccc3N=C3CC(c4cccs4)CC(O)=C32)s1 (stereo not shown) | -2.83%
CCOC(=O)c1c(C)[nH]c(C)c1C#N | 1.63%
Cc1cc(C)cc(NS(=O)(=O)c2ccc(NC(=O)COc3cccc(C)c3)cc2)c1 | 2.73%
COc1cccc(/C=C/C(=O)c2c(O)cc(C)oc2=O)c1O | 4.73%
COc1ccc(-c2nc(SC)n(S(=O)(=O)c3ccccc3)n2)cc1 | 2.46%
CC(C)C(=O)N1CCN(c2ccc(NC(=O)c3ccc(C#N)cc3F)cc2Cl)CC1 | 1.84%
Cc1ccc(C2C3=C(O)CC(c4ccc(Cl)cc4)CC3=Nc3ncnn32)cc1 (stereo not shown) | -3.53%
O=S(=O)(Nc1nc2ccccc2nc1Nc1ccc2ccccc2c1)c1ccccc1 | 4.44%
CCOc1ccccc1C1C2=C(O)CC(C)(C)CC2=NC(C)=C1C(=O)Nc1ccccc1C (stereo not shown) | 6.98%
CCOC(=O)C1=C(CSc2nnc(N)s2)NC(=O)NC1c1cc(C)ccc1C (stereo not shown) | -0.834%
CCc1nnc(NC(=O)C(=O)c2cc(C)n(-c3ccc(F)cc3)c2C)s1 | 2.32%
COc1ccc(Br)cc1C1CC(=O)Nc2c1c(C)nn2-c1nc2ccccc2s1 (stereo not shown) | -1.11%
CCN(CC)C(=O)C1CCCN(Cc2c(C)n(C)n(-c3ccccc3)c2=O)C1 (stereo not shown) | -4.98%
CNCCn1ccc2ccccc21 | 1.63%
O=C(CSc1nc(-c2cccs2)cc(C(F)(F)F)n1)NCc1cccs1 | 1.39%
NC(=O)C1CCCN(Cc2ccc(Cl)cc2Cl)C1 (stereo not shown) | -1.5%
Nc1c(NCCN2CCCC2)c2ccccc2oc1=O | -4.21%
COc1ccc(S(=O)(=O)N(CC(=O)N2CCCCCC2)c2ccc(Cl)cc2)cc1 | 1.27%
CCn1c(C)c(C)c2cc(C(=O)N3CCc4ccccc4C3)ccc21 | 0.399%

Compound | % Inhibition @ 10 uM
COc1cccc(CN2CCN(C(=O)c3cccc(Cl)c3)CC2)c1OC | -1.77%
CC(NC(=O)c1cc2c(O)nc3ccccc3c2s1)c1ccc2c(c1)OCCO2 (stereo not shown) | 4.51%
Cc1ccc(S(=O)(=O)N2CCc3ccccc3C2)cc1[N+](=O)[O-] | 0.215%
CC1=NN(C(=O)c2ccccc2)C(O)(c2ccc(Cl)cc2)C1 (stereo not shown) | -3.09%
O=C(Nc1ccc(Cl)cc1)N1CCc2ccccc21 | 3.24%
CC1=CC(C)C(C2OCCN2CC2COC3(CCCCC3)O2)C(C)C1 (stereo not shown) | -9.49%
CC1=CCC(C(=O)O)C(C(=O)NCc2ccc3c(c2)OCO3)C1 (stereo not shown) | -2.98%
C=CCN1C(=O)c2oc3cc(C)cc(C)c3c(=O)c2C1c1ccccc1F (stereo not shown) | 1.67%
CC(C)=C(NC(=O)c1ccccc1)C(=O)NCCCC(=O)O | 4.38%
COc1ccccc1Oc1nc2c(C)cccn2c(=O)c1/C=C(\C#N)C(=O)N1CCCCC1 | -5.1%
CS(=O)(=O)c1ncc(Cl)c(C(=O)Nc2nnc(SCc3ccc(F)cc3)s2)n1 | 5.29%
COc1ccc(-c2nc(-n3c(C)c(C(C)=O)c(C(C)=O)c3C)sc2C)cc1OC | -4.62%
CCN(CC)C(=O)/C(=C/c1cn(CC)c2ccccc12)NC(=O)c1ccco1 | 3.24%
COc1cc(-c2nc(SCC(=O)NC3CCCC3)c(-c3ccccc3)[nH]2)cc(OC)c1OC | 5.06%
O=C1S/C(=C\c2cc(Cl)ccc2O)C(=O)N1Cc1ccc(F)cc1 | 5%
O=C(NCCCNCCCNC(=O)c1ccncc1)c1ccncc1 | -9.83%
COc1ccccc1OC1OCC(O)C(O)C1O (stereo not shown) | 6.06%
CC(C)c1nnc(NC(=O)c2ccc(C(=O)C(=O)c3ccccc3)cc2)s1 | -1.06%
COc1ccc(S(=O)(=O)N(CC(=O)N2CCCCC2)c2cc(Cl)ccc2OC)cc1OC | -1.59%
CC(C)C[C@H](NC(=O)c1ccc(N(C)C)nc1)C(=O)NCC#N | 2.22%
N#CCNC(=O)C(CC1CCCCC1)C(=O)NCc1cccc([N+](=O)[O-])c1 (stereo not shown) | -8.82%
COCCN(CCOC)c1ncnc2c1cnn2-c1ccccc1 | 6.74%
COc1ccc(C(=O)c2c[nH]cn2)cc1 | -4.75%
CCC(C)c1ccc(OCCOc2ccc(C=C3C(=O)NC(=O)NC3=O)cc2)cc1 (stereo not shown) | 4.55%
C1CCN(CCNC2C3CC4CC(C3)CC2C4)CC1 (stereo not shown) | -4.75%

Compound | % Inhibition @ 10 uM
COCCCNC(=O)CCCCCNS(=O)(=O)c1ccc(Br)cc1 | 2.84%
CC(=O)NC(Cc1ccccc1F)C(=O)N[C@@H](CCc1ccccc1)C(=O)c1nc2ccccc2o1 (stereo partly shown) | -6.98%
CC1=C(C(=O)OCCOc2ccccc2)C(c2ccsc2)NC(=O)N1C (stereo not shown) | 0.289%
O=C(Nc1ccc2oc(-c3ccc(F)cc3)nc2c1)c1ccccc1 | -15.9%
Cc1nc2ccc(S(=O)(=O)N(C)CC(=O)N3CCN(C4CCCCC4)CC3)cc2s1 | 1.15%
CC(NC(=O)C(=O)NCc1ccco1)c1ccccc1 (stereo not shown) | 0.131%
CCOc1ccccc1C(=O)Nc1ccccc1OC | -1.21%
O=C(NCc1ccc(Cl)cc1)Nc1cccs1 | 0.596%
Cc1ccc(C(=O)C2=C(N)OC3=C(C(=O)CC(C)(C)C3)C2c2ccccc2Cl)cc1 (stereo not shown) | -6.6%
O=C(Cn1cnc2onc(-c3ccc(Cl)cc3)c2c1=O)NCCC1=CCCCC1 | 3.54%
O=C(O)c1ccccc1C(=O)Nc1ccc(O)cc1 | -4.96%
O=C(O)c1ccc(CS(=O)(=O)c2ccccc2)o1 | -0.657%
COc1ccccc1CC(=O)N(Cc1nc(-c2ccc(Cl)cc2)no1)C(C)C | -2.75%
Cc1sc2ncn(CC(=O)NCc3ccccn3)c(=O)c2c1S(=O)(=O)N1CCOCC1 | -0.363%
C=CCNC(=O)c1sc2nc(C)c(Cl)c(C)c2c1N | 2.99%
CCOC(=O)c1ccccc1NC(=O)c1cccc(OC)c1 | -3.65%
Cc1ccc(Cc2c(C)nc3c(C(=O)N4CCc5ccccc5C4)cnn3c2C)cc1 | -4.06%
CCCCNc1ncnc2sc3c(c12)CCCC3 | -2.18%
COC(=O)c1ccc(CN2CCN(c3ccccc3)CC2)cc1 | 1.62%
Cc1ccc(N2C(=O)CC(NCc3ccc4c(c3)OCO4)C2=O)cc1 (stereo not shown) | -9.2%
CCOc1ccc(CCNC(=O)c2nn(C)c3c2CS(=O)(=O)c2ccccc2-3)cc1 | -0.205%
Cc1nn(Cc2ccc(Cl)c(Cl)c2)c(C)c1NC(=O)c1ccc2c(c1)OCO2 | -8.56%
Cc1cc(C)cc(NC(=O)C2COc3ccccc3O2)c1 (stereo not shown) | -2.74%
O=Cc1cn(CCOc2ccccc2)c2ccccc12 | -0.971%
CCC(C)(C)C(=O)N1CCN(c2ccccc2)CC1 | -3.19%
